Experimental data: publication PMC12820563, “FoxP3 forms a head-to-head dimer in vivo and stabilizes its multimerization on adjacent microsatellites”
Some of the results follow.

target: T1, MBP-FoxP1dN (Mus musculus, UniProt P58462 326-579); experiment: PD-seq (MBP pull-down with sequencing); 20 mM Tris-HCl pH 7.5, 100 mM NaCl, 1.5 mM MgCl2, 0.4 uM protein, 0.1 uM dsDNA library, 30 min, room temperature, amylose pull-down; high values mean tight binding; settings: protein: recombinant; tags: His6-MBP; chain copies: 2; dsDNA, one strand shown
T1 sequence: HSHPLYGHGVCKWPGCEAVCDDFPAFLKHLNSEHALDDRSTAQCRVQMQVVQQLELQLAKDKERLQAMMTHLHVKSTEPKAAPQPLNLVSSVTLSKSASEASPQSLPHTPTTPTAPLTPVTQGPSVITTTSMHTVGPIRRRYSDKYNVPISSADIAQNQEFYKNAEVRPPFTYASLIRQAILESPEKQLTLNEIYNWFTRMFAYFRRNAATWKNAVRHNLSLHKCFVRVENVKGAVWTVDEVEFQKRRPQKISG
Summary of the method: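 Binding is given as reads-per-million enrichment, pull-down over input, with replicates pooled. The bait was an N-terminus-lacking mouse FoxP3 or FoxP1 fragment with a His6-MBP tag, expressed in E. coli and used at 0.4 µM with 0.1 µM Klenow-filled degenerate double-stranded DNA library for 30 min at room temperature in Tris pH 7.5 buffer with NaCl and MgCl2. Amylose resin pull-down with three washes was followed by proteinase K release, PCR barcoding and Illumina sequencing.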

**Q.** With “GATGATTGTTCTCCCAGCTGATGAATTGGGACGTTCGAGTAAACAAATTTTCCTAATCTTTCTGTTCAAGCGCCATCTAC” as the sequence, how does the binding signal read?
**A.** 0.92 RPM ratio (pull-down/input)

**Q.** How did the binding signal turn out when “GATGATTGTTCTCCCAGCTGATGAATTAAAATAATCGAGTAAACAAATTTTCCTAATCTTTCTGTTCAAGCGCCATCTAC” was run?
**A.** 1.39 RPM ratio (pull-down/input)

**Q.** For “GATGATTGTTCTCCCAGCTGATGAATTCTACGAATCGAGTAAACAAATTTTCCTAATCTTTCTGTTCAAGCGCCATCTAC”, which binding signal is on record?
**A.** 0.895 RPM ratio (pull-down/input)

**Q.** For “GATGATTGTTCTCCCAGCTGATGAATTGACCAGATCGAGTAAACAAATTTTCCTAATCTTTCTGTTCAAGCGCCATCTAC”, which binding signal is on record?
**A.** 0.901 RPM ratio (pull-down/input)

**Q.** For “GATGATTGTTCTCCCAGCTGATGAATTGAAAGGGTCGAGTAAACAAATTTTCCTAATCTTTCTGTTCAAGCGCCATCTAC”, which binding signal is on record?
**A.** 0.737 RPM ratio (pull-down/input)

**Q.** With “GATGATTGTTCTCCCAGCTGATGAATTCCACAAGTCGAGTAAACAAATTTTCCTAATCTTTCTGTTCAAGCGCCATCTAC” as the sequence, how does the binding signal read?
**A.** 0.802 RPM ratio (pull-down/input)

**Q.** Which binding signal does the source give for “GATGATTGTTCTCCCAGCTGATGAATTGTTGCACTCGAGTAAACAAATTTTCCTAATCTTTCTGTTCAAGCGCCATCTAC” here?
**A.** 1.76 RPM ratio (pull-down/input)

**Q.** For “GATGATTGTTCTCCCAGCTGATGAATTAAGTGGCTCGAGTAAACAAATTTTCCTAATCTTTCTGTTCAAGCGCCATCTAC”, which binding signal is on record?
**A.** 0.903 RPM ratio (pull-down/input)

**Q.** For “GATGATTGTTCTCCCAGCTGATGAATTTCTTGGGTCGAGTAAACAAATTTTCCTAATCTTTCTGTTCAAGCGCCATCTAC”, which binding signal is on record?
**A.** 0.716 RPM ratio (pull-down/input)

**Q.** For “GATGATTGTTCTCCCAGCTGATGAATTTTCAACGTCGAGTAAACAAATTTTCCTAATCTTTCTGTTCAAGCGCCATCTAC”, which binding signal is on record?
**A.** 0.89 RPM ratio (pull-down/input)

**Q.** With “GATGATTGTTCTCCCAGCTGATGAATTCTGCCAATCGAGTAAACAAATTTTCCTAATCTTTCTGTTCAAGCGCCATCTAC” as the sequence, how does the binding signal read?
**A.** 1.01 RPM ratio (pull-down/input)

**Q.** For “GATGATTGTTCTCCCAGCTGATGAATTGAGTGATTCGAGTAAACAAATTTTCCTAATCTTTCTGTTCAAGCGCCATCTAC”, which binding signal is on record?
**A.** 0.981 RPM ratio (pull-down/input)

**Q.** With “GATGATTGTTCTCCCAGCTGATGAATTTCGACCTTCGAGTAAACAAATTTTCCTAATCTTTCTGTTCAAGCGCCATCTAC” as the sequence, how does the binding signal read?
**A.** 0.788 RPM ratio (pull-down/input)

**Q.** With “GATGATTGTTCTCCCAGCTGATGAATTACGTCTATCGAGTAAACAAATTTTCCTAATCTTTCTGTTCAAGCGCCATCTAC” as the sequence, how does the binding signal read?
**A.** 1.06 RPM ratio (pull-down/input)

**Q.** How did the binding signal turn out when “GATGATTGTTCTCCCAGCTGATGAATTCAGATACTCGAGTAAACAAATTTTCCTAATCTTTCTGTTCAAGCGCCATCTAC” was run?
**A.** 0.888 RPM ratio (pull-down/input)

**Q.** For “GATGATTGTTCTCCCAGCTGATGAATTTGAGACATCGAGTAAACAAATTTTCCTAATCTTTCTGTTCAAGCGCCATCTAC”, which binding signal is on record?
**A.** 0.988 RPM ratio (pull-down/input)

**Q.** Which binding signal does the source give for “GATGATTGTTCTCCCAGCTGATGAATTATACTACTCGAGTAAACAAATTTTCCTAATCTTTCTGTTCAAGCGCCATCTAC” here?
**A.** 0.979 RPM ratio (pull-down/input)

**Q.** How did the binding signal turn out when “GATGATTGTTCTCCCAGCTGATGAATTTTTCATCTCGAGTAAACAAATTTTCCTAATCTTTCTGTTCAAGCGCCATCTAC” was run?
**A.** 0.937 RPM ratio (pull-down/input)

**Q.** For “GATGATTGTTCTCCCAGCTGATGAATTGGCGCATTCGAGTAAACAAATTTTCCTAATCTTTCTGTTCAAGCGCCATCTAC”, which binding signal is on record?
**A.** 1.27 RPM ratio (pull-down/input)

**Q.** For “GATGATTGTTCTCCCAGCTGATGAATTTTGCGCGTCGAGTAAACAAATTTTCCTAATCTTTCTGTTCAAGCGCCATCTAC”, which binding signal is on record?
**A.** 1.04 RPM ratio (pull-down/input)

**Q.** With “GATGATTGTTCTCCCAGCTGATGAATTGATGTACTCGAGTAAACAAATTTTCCTAATCTTTCTGTTCAAGCGCCATCTAC” as the sequence, how does the binding signal read?
**A.** 1.14 RPM ratio (pull-down/input)

**Q.** “GATGATTGTTCTCCCAGCTGATGAATTTCCCTTATCGAGTAAACAAATTTTCCTAATCTTTCTGTTCAAGCGCCATCTAC” was tested. Which binding signal did it give?
**A.** 0.876 RPM ratio (pull-down/input)

**Q.** “GATGATTGTTCTCCCAGCTGATGAATTAAACAATTCGAGTAAACAAATTTTCCTAATCTTTCTGTTCAAGCGCCATCTAC” was tested. Which binding signal did it give?
**A.** 1.64 RPM ratio (pull-down/input)

**Q.** “GATGATTGTTCTCCCAGCTGATGAATTATGCTCCTCGAGTAAACAAATTTTCCTAATCTTTCTGTTCAAGCGCCATCTAC” was tested. Which binding signal did it give?
**A.** 1 RPM ratio (pull-down/input)

**Q.** How did the binding signal turn out when “GATGATTGTTCTCCCAGCTGATGAATTACGTAGTTCGAGTAAACAAATTTTCCTAATCTTTCTGTTCAAGCGCCATCTAC” was run?
**A.** 1.02 RPM ratio (pull-down/input)

**Q.** For “GATGATTGTTCTCCCAGCTGATGAATTAACCTCGTCGAGTAAACAAATTTTCCTAATCTTTCTGTTCAAGCGCCATCTAC”, which binding signal is on record?
**A.** 0.928 RPM ratio (pull-down/input)

**Q.** For “GATGATTGTTCTCCCAGCTGATGAATTTAAGACCTCGAGTAAACAAATTTTCCTAATCTTTCTGTTCAAGCGCCATCTAC”, which binding signal is on record?
**A.** 0.791 RPM ratio (pull-down/input)

**Q.** How did the binding signal turn out when “GATGATTGTTCTCCCAGCTGATGAATTCAACACCTCGAGTAAACAAATTTTCCTAATCTTTCTGTTCAAGCGCCATCTAC” was run?
**A.** 0.962 RPM ratio (pull-down/input)

**Q.** “GATGATTGTTCTCCCAGCTGATGAATTCCCCTAGTCGAGTAAACAAATTTTCCTAATCTTTCTGTTCAAGCGCCATCTAC” was tested. Which binding signal did it give?
**A.** 0.812 RPM ratio (pull-down/input)

**Q.** How did the binding signal turn out when “GATGATTGTTCTCCCAGCTGATGAATTTGGTATTTCGAGTAAACAAATTTTCCTAATCTTTCTGTTCAAGCGCCATCTAC” was run?
**A.** 1.07 RPM ratio (pull-down/input)

**Q.** Which binding signal does the source give for “GATGATTGTTCTCCCAGCTGATGAATTATAGCACTCGAGTAAACAAATTTTCCTAATCTTTCTGTTCAAGCGCCATCTAC” here?
**A.** 0.987 RPM ratio (pull-down/input)

**Q.** How did the binding signal turn out when “GATGATTGTTCTCCCAGCTGATGAATTGCTGACATCGAGTAAACAAATTTTCCTAATCTTTCTGTTCAAGCGCCATCTAC” was run?
**A.** 1.25 RPM ratio (pull-down/input)

**Q.** Which binding signal does the source give for “GATGATTGTTCTCCCAGCTGATGAATTCAGCTGTTCGAGTAAACAAATTTTCCTAATCTTTCTGTTCAAGCGCCATCTAC” here?
**A.** 0.925 RPM ratio (pull-down/input)

**Q.** “GATGATTGTTCTCCCAGCTGATGAATTCTCACGTTCGAGTAAACAAATTTTCCTAATCTTTCTGTTCAAGCGCCATCTAC” was tested. Which binding signal did it give?
**A.** 0.76 RPM ratio (pull-down/input)

**Q.** With “GATGATTGTTCTCCCAGCTGATGAATTCCATACATCGAGTAAACAAATTTTCCTAATCTTTCTGTTCAAGCGCCATCTAC” as the sequence, how does the binding signal read?
**A.** 1.05 RPM ratio (pull-down/input)

**Q.** Which binding signal does the source give for “GATGATTGTTCTCCCAGCTGATGAATTTCGCACTTCGAGTAAACAAATTTTCCTAATCTTTCTGTTCAAGCGCCATCTAC” here?
**A.** 0.894 RPM ratio (pull-down/input)

**Q.** For “GATGATTGTTCTCCCAGCTGATGAATTCAACGGGTCGAGTAAACAAATTTTCCTAATCTTTCTGTTCAAGCGCCATCTAC”, which binding signal is on record?
**A.** 0.894 RPM ratio (pull-down/input)

**Q.** How did the binding signal turn out when “GATGATTGTTCTCCCAGCTGATGAATTGTTAATATCGAGTAAACAAATTTTCCTAATCTTTCTGTTCAAGCGCCATCTAC” was run?
**A.** 1.46 RPM ratio (pull-down/input)

**Q.** Which binding signal does the source give for “GATGATTGTTCTCCCAGCTGATGAATTCTGCCTATCGAGTAAACAAATTTTCCTAATCTTTCTGTTCAAGCGCCATCTAC” here?
**A.** 0.847 RPM ratio (pull-down/input)

**Q.** Which binding signal does the source give for “GATGATTGTTCTCCCAGCTGATGAATTTGCAGTTTCGAGTAAACAAATTTTCCTAATCTTTCTGTTCAAGCGCCATCTAC” here?
**A.** 1.02 RPM ratio (pull-down/input)
